Test results from paper PMC3541133.
No constants are given. Whether binding was seen depends on the method and setting. For some of these results: In cells and extracts the contact can be indirect. Some entries that bind do so weakly or less than the wild type. For some of these results: Tags and fused reporters may be left off the sequences shown.

By UniProt entry, the sequences of proteins in these tests, tags left out. Where a name states a change or a piece, a line headed by the entry shows the natural chain unless it says otherwise. Residues count along the entry.
UniProt P03197: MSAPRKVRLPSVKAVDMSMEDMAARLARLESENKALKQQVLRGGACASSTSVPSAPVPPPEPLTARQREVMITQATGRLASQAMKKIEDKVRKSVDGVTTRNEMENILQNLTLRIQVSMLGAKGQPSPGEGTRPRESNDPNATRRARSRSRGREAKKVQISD
GST-BLRF2 aa1–130: residues 1-130 of P03197
GST-BLRF2 aa42–162: residues 42-162 of P03197
UniProt P78362: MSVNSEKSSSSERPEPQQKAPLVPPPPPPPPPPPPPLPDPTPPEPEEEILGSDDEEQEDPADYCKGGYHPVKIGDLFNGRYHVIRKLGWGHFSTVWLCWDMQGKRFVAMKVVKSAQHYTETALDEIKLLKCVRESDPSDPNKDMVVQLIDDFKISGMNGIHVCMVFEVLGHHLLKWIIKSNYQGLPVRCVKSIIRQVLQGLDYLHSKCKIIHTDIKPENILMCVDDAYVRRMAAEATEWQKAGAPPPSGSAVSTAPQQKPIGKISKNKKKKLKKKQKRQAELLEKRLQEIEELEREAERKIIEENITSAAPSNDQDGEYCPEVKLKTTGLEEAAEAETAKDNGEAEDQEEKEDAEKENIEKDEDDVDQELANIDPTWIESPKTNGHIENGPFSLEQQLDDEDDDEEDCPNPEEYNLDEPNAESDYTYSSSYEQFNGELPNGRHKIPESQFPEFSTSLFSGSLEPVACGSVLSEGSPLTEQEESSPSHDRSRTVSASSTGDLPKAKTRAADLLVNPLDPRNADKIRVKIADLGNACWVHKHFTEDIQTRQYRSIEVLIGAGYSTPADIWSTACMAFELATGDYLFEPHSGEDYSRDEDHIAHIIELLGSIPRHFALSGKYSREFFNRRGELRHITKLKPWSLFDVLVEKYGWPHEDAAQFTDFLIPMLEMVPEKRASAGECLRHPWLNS

Tests used:
[1] = biological target: GST-BLRF2 aa1–130 (Epstein-Barr virus) (UniProt P03197); assay: pull-down; GST-BLRF2 construct and GFP tagged protein co-expressed in 293T cells; 1% NP-40 lysis buffer (50 mM Tris pH 7.5, 150 mM NaCl); Glutathione Sepharose 4B, 2 hours at 4°C; western blot with anti-GFP and anti-GST
[2] = biological target: GST-BLRF2 aa42–162 (Epstein-Barr virus) (UniProt P03197); assay: as above
[3] = biological target: GST-BLRF2 (1–162) (Epstein-Barr virus) (UniProt P03197); assay: as above
[4] = biological target: FLAG-HA-BLRF2 (Epstein-Barr virus) (UniProt P03197); assay: co-IP; FLAG-HA-BLRF2 P3HR1-ZHT cells induced with 4-hydroxytamoxifen for 48 hours; total lysate, cytoplasmic and nuclear fractions (hypotonic lysis) immunoprecipitated with flag beads (M2); blotted for BLRF2 (HA antibody) and SRPK2
[5] = biological target: BLRF2 yeast two-hybrid fusions (gal4-AD-BLRF2 and gal4-DB-BLRF2) (Epstein-Barr virus) (UniProt P03197); assay: two-hybrid; gal4-DB-BLRF2 (bait configuration) screened against the human ORFeome v5.1; also published as part of a larger dataset (ref. 22)

## GFP-BLRF2 (from UniProt P03197 1-162)
[1]
  binding: binds
[2]
  binding: binds

## GFP-SRPK2 (from UniProt P78362 1-688) (enzyme)
[3]
  binding: binds
[1]
  binding: no binding
[2]
  binding: binds

## SRPK2 (endogenous, P3HR1-ZHT cells) (from UniProt P78362 1-688) (enzyme)
[4]
  binding: binds

B1: GFP tagged SRPRB (protein, UniProt Q9Y5M8 1-271)
chain: MASADSRRVADGGGAGGTFQPYLDTLRQELQQTDPTLLSVVVAVLAVLLTLVFWKLIRSRRSSQRAVLLVGLCDSGKTLLFVRLLTGLYRDTQTSITDSCAVYRVNNNRGNSLTLIDLPGHESLRLQFLERFKSSARAIVFVVDSAAFQREVKDVAEFLYQVLIDSMGLKNTPSFLIACNKQDIAMAKSAKLIQQQLEKELNTLRVTRSAAPSTLDSSSTAPAQLGKKGKEFEFSQLPLKVEFLECSAKGGRGDVGSADIQDLEKWLAKIA
[3]
  binding: binds
[1]
  binding: no binding
[2]
  binding: binds

B2: ZBED1 (human ORFeome v5.1 hybrid protein, partner of gal4-DB-BLRF2) (protein, UniProt O96006 1-694)
chain: MENKSLESSQTDLKLVAHPRAKSKVWKYFGFDTNAEGCILQWKKIYCRICMAQIAYSGNTSNLSYHLEKNHPEEFCEFVKSNTEQMREAFATAFSKLKPESSQQPGQDALAVKAGHGYDSKKQQELTAAVLGLICEGLYPASIVDEPTFKVLLKTADPRYELPSRKYISTKAIPEKYGAVREVILKELAEATWCGISTDMWRSENQNRAYVTLAAHFLGLGAPNCLSMGSRCLKTFEVPEENTAETITRVLYEVFIEWGISAKVFGATTNYGKDIVKACSLLDVAVHMPCLGHTFNAGIQQAFQLPKLGALLSRCRKLVEYFQQSAVAMYMLYEKQKQQNVAHCMLVSNRVSWWGSTLAMLQRLKEQQFVIAGVLVEDSNNHHLMLEASEWATIEGLVELLQPFKQVAEMLSASRYPTISMVKPLLHMLLNTTLNIKETDSKELSMAKEVIAKELSKTYQETPEIDMFLNVATFLDPRYKRLPFLSAFERQQVENRVVEEAKGLLDKVKDGGYRPAEDKIFPVPEEPPVKKLMRTSTPPPASVINNMLAEIFCQTGGVEDQEEWHAQVVEELSNFKSQKVLGLNEDPLKWWSDRLALFPLLPKVLQKYWCVTATRVAPERLFGSAANVVSAKRNRLAPAHVDEQVFLYENARSGAEAEPEDQDEGEWGLDQEQVFSLGDGVSGGFFGIRDSSFL
[5]
  binding: binds

B3: GFP tagged ZBED1 (protein, UniProt O96006 1-694)
chain: MENKSLESSQTDLKLVAHPRAKSKVWKYFGFDTNAEGCILQWKKIYCRICMAQIAYSGNTSNLSYHLEKNHPEEFCEFVKSNTEQMREAFATAFSKLKPESSQQPGQDALAVKAGHGYDSKKQQELTAAVLGLICEGLYPASIVDEPTFKVLLKTADPRYELPSRKYISTKAIPEKYGAVREVILKELAEATWCGISTDMWRSENQNRAYVTLAAHFLGLGAPNCLSMGSRCLKTFEVPEENTAETITRVLYEVFIEWGISAKVFGATTNYGKDIVKACSLLDVAVHMPCLGHTFNAGIQQAFQLPKLGALLSRCRKLVEYFQQSAVAMYMLYEKQKQQNVAHCMLVSNRVSWWGSTLAMLQRLKEQQFVIAGVLVEDSNNHHLMLEASEWATIEGLVELLQPFKQVAEMLSASRYPTISMVKPLLHMLLNTTLNIKETDSKELSMAKEVIAKELSKTYQETPEIDMFLNVATFLDPRYKRLPFLSAFERQQVENRVVEEAKGLLDKVKDGGYRPAEDKIFPVPEEPPVKKLMRTSTPPPASVINNMLAEIFCQTGGVEDQEEWHAQVVEELSNFKSQKVLGLNEDPLKWWSDRLALFPLLPKVLQKYWCVTATRVAPERLFGSAANVVSAKRNRLAPAHVDEQVFLYENARSGAEAEPEDQDEGEWGLDQEQVFSLGDGVSGGFFGIRDSSFL
[3]
  binding: binds
[1]
  binding: no binding
[2]
  binding: binds

B4: GFP tagged BNRF1 (protein, UniProt P03179 1-1318)
chain: MEERGRETQMPVARYGGPFIMVRLFGQDGEANIQEERLYELLSDPRSALGLDPGPLIAENLLLVALRGTNNDPRPQRQERARELALVGILLGNGEQGEHLGTESALEASGNNYVYAYGPDWMARPSTWSAEIQQFLRLLGATYVLRVEMGRQFGFEVHRSRPSFRQFQAINHLVLFDNALRKYDSGQVAAGFQRALLVAGPETADTRPDLRKLNEWVFGGRAAGGRQLADELKIVSALRDTYSGHLVLQPTETLDTWKVLSRDTRTAHSLEHGFIHAAGTIQANCPQLFMRRQHPGLFPFVNAIASSLGWYYQTATGPGADARAAARRQQAFQTRAAAECHAKSGVPVVAGFYRTINATLKGGEGLQPTMFNGELGAIKHQALDTVRYDYGHYLIMLGPFQPWSGLTAPPCPYAESSWAQAAVQTALELFSALYPAPCISGYARPPGPSAVIEHLGSLVPKGGLLLFLSHLPDDVKDGLGEMGPARATGPGMQQFVSSYFLNPACSNVFITVRQRGEKINGRTVLQALGRACDMAGCQHYVLGSTVPLGGLNFVNDLASPVSTAEMMDDFSPFFTVEFPPIQEEGASSPVPLDVDESMDISPSYELPWLSLESCLTSILSHPTVGSKEHLVRHTDRVSGGRVAQQPGVGPLDLPLADYAFVAHSQVWTRPGGAPPLPYRTWDRMTEKLLVSAKPGGENVKVSGTVITLGEQGYKVSLDLREGTRLAMAEALLNAACAPILDPEDVLLTLHLHLDPRRADNSAVMEAMTAASDYARGLGVKLTFGSASCPETGSSASNFMTVVASVSAPGEFSGPLITPVLQKTGSLLIAVRCGDGKIQGGSLFEQLFSDVATTPRAPEALSLKNLFRAVQQLVKSGIVLSGHDISDGGLVTCLVEMALAGQRGVTITMPVASDYLPEMFAEHPGLVFEVEERSVGEVLQTLRSMNMYPAVLGRVGEQGPDQMFEVQHGPETVLRQSLRLLLGTWSSFASEQYECLRPDRINRSMHVSDYGYNEALAVSPLTGKNLSPRRLVTEPDPRCQVAVLCAPGTRGHESLLAAFTNAGCLCRRVFFREVRDNTFLDKYVGLAIGGVHGARDSALAGRATVALINRFPALRDAILKFLNRPDTFSVALGELGVQVLAGLGAVGSTDNPPAPGVEVNVQRSPLILAPNASGMFESRWLNISIPATTSSVMLRGLRGCVLPCWVQGSCLGLQFTNLGMPYVLQNAHQIACHFHSNGTDAWRFAMNYPRNPTEQGNIAGLCSRDGRHLALLCDPSLCTDFWQWEHIPPAFGHPTGCSPWTLMFQAAHLWSLRHGRPSE
[3]
  binding: binds
[1]
  binding: no binding
[2]
  binding: binds
